The campaign covered roughly 310,000 compounds. About 2,200 (0.71%) showed an effect of 50% or more. Effects have a minus sign here. The list shows a part of the results.

Consider 55 compounds from article PMC4336329 (PLoS ONE, 2015).

Chain of human ether-à-go-go-related gene (hERG) potassium channel (Q12809 whole entry, looked up): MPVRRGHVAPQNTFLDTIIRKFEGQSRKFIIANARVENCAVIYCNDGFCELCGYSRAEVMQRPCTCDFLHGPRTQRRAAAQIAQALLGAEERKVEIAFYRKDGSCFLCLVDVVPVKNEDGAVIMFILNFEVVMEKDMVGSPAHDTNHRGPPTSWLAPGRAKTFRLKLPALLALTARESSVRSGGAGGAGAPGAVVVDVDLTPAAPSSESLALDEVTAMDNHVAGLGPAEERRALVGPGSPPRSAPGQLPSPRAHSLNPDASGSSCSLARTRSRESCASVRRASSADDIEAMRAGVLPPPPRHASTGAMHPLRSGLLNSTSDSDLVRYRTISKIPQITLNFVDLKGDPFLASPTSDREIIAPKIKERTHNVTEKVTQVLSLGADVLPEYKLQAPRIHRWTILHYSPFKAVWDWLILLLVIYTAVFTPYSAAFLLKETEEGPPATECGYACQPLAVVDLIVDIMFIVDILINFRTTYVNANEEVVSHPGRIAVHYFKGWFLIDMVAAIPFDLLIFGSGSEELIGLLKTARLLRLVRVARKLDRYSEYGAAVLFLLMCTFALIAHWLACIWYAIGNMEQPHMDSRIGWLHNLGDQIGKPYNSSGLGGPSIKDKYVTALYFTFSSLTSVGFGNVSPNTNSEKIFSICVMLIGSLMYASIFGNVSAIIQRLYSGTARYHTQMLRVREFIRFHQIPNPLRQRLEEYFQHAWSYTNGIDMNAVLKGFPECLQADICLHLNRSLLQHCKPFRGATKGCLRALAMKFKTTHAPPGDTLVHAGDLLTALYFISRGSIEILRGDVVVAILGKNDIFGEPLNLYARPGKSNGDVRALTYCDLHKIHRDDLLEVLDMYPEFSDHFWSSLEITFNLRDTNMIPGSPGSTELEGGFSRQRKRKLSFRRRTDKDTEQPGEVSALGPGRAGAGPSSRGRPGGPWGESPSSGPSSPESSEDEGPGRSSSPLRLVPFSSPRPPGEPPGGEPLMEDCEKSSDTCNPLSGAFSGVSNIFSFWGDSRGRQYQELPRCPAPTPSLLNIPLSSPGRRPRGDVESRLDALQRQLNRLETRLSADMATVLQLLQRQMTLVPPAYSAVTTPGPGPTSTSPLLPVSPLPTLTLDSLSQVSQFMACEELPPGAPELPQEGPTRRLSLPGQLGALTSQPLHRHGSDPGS

This assay concerns the target human ether-à-go-go-related gene (hERG) potassium channel (human, UniProt Q12809). As to the kind of experiment: primary screen, population patch clamp on CHO cells stably expressing hERG.
On to `CN(C)CCNC(=O)C(=O)c1c(-c2ccccc2)cc2ccccn12`, for which the “hERG current change (%, negative = inhibition) at 1uM” value amounted to 14.9%. Next, `O=C(COc1ccc2c(-c3ccccc3)cc(=O)oc2c1)N[C@H](Cc1c[nH]c2ccccc12)C(=O)O`: -10.5%; `O=C(NN=C1c2ccccc2-c2ccccc21)c1ccccc1`: -1.71%; `COC(=O)NC1(C(F)(F)F)C(=O)Nc2c1c(=O)n(C)c(=O)n2C` (stereo not shown): 12%. Next, `CCN(Cc1cc2ccccc2[nH]c1=O)S(=O)(=O)c1ccccc1`: 10.3%. The value for `CC(=O)Nc1ccc(Sc2ccccc2C(=O)O)cn1` was 11.4%. As to `Clc1ccccc1CSc1nnc(-c2cccnc2)n1Cc1ccco1`, the “hERG current change (%, negative = inhibition) at 1uM” value was -14.2%. Turning to `NC(CO)C(O)c1ccc([N+](=O)[O-])cc1` (stereo not shown), the “hERG current change (%, negative = inhibition) at 1uM” value is on record as 10.7%.

For `O=C1N=C(N2CCCCC2)S/C1=C\c1ccc(Cl)cc1`, the “hERG current change (%, negative = inhibition) at 1uM” value was found to be 8.58%. Regarding `COc1cccc(C(=O)COc2cccc(NC(=O)c3ccco3)c2)c1`, the “hERG current change (%, negative = inhibition) at 1uM” value was 1.82%. In the case of `CN(C)CCNC(=O)C(c1ccccc1)c1ccccc1`, the “hERG current change (%, negative = inhibition) at 1uM” value is on record as 4.76%. Next, `Cn1c2ccccc2n2c(=O)c(=O)n(CC(=O)c3ccc(Cl)cc3)nc12`: 5.96%; `Cc1cccc(-c2nc(CN3CCN(Cc4cccc(F)c4)CC3)c(C)o2)c1`: 2.78%; `Cc1cc(Nc2c(C)n(C)n(-c3ccccc3)c2=O)n2c(nc3cc(F)c(F)cc32)c1C#N`: 9.44%. In the case of `COc1ccc(CCNC(=O)CN(C)S(=O)(=O)c2ccc(OC)cc2)cc1`, the “hERG current change (%, negative = inhibition) at 1uM” value stood at 8.46%. On to `O=C(c1ccco1)N1CCN(C(=O)C23CC4CC(CC(C4)C2)C3)CC1`, for which the “hERG current change (%, negative = inhibition) at 1uM” value turned out to be 3.85%. Next, `C=CCn1c(=O)/c(=C/c2ccc(O)cc2)s/c1=C(/C#N)c1nnc2n1CCCCC2`: 7.03%. Next, `COc1cccc(S(=O)(=O)Nc2ccc3c(c2)OCCO3)c1`: 2.18%. Next, `Cc1ccc(S(=O)(=O)Oc2ccc(/C=N/NC(=O)c3nn(C)cc3[N+](=O)[O-])cc2)cc1`: 3.14%. For `Cc1cc(OCC(=O)OCC(=O)N2CCc3ccccc3C2)ccc1Cl`, the “hERG current change (%, negative = inhibition) at 1uM” value is reported as 15.7%.

`CCN(CC)C(=O)CN1CCN(c2ccccc2F)CC1.Cl`: the “hERG current change (%, negative = inhibition) at 1uM” value was 16.1%. Next, `Cn1c(SCC(=O)NNC(=O)Cc2ccccc2)nnc1-c1ccc(Cl)cc1`: 1.97%. As to `O=C(NNC(=O)c1cc(Cl)nc2ccccc12)c1ccccc1F`, the “hERG current change (%, negative = inhibition) at 1uM” value was 16.1%. For `COc1ccc(N(CC(=O)NCCc2cccc(C)c2)S(=O)(=O)c2c(C)noc2C)cc1`, the “hERG current change (%, negative = inhibition) at 1uM” value is on record as 10.7%. Regarding `Cc1ccc(S(=O)(=O)N(C)C)cc1NC(=O)COC(=O)/C=C/c1ccc2ccccc2n1`, the “hERG current change (%, negative = inhibition) at 1uM” value amounted to 8.57%. The value for `Cc1ccc(S(=O)(=O)NC(C(=O)Oc2ccc3c(C)c(Cl)c(=O)oc3c2)c2ccccc2)cc1` (stereo not shown) was 8.73%. For the compound `Cc1nn(-c2ccccc2)c(C)c1/C=N/NC(=O)c1ccc(F)cc1`, the “hERG current change (%, negative = inhibition) at 1uM” value was determined as 15.1%. Take `Cc1ccccc1Cn1cc(NC(=O)c2cc3nc(-c4ccco4)cc(C(F)(F)F)n3n2)cn1`: the “hERG current change (%, negative = inhibition) at 1uM” value stood at 8.28%. On to `CCCCN(CC)CCCNC(=O)c1ccc(CS(=O)(=O)c2c(Cl)cccc2Cl)o1`, for which the “hERG current change (%, negative = inhibition) at 1uM” value is given as -8.53%. In the case of `C#CCN(C)Cc1ccccc1.Cl`, the “hERG current change (%, negative = inhibition) at 1uM” value is reported as 11.8%. Consider `N=c1c(C(=O)NC2CCCC2)cc2c(=O)n3ccccc3nc2n1C1CCCCC1`, for which the “hERG current change (%, negative = inhibition) at 1uM” value is reported as -86.9%. Next, `CCNC(=S)N(Cc1cc2cc(C)cc(C)c2[nH]c1=O)C1CCCC1`: 0.619%; `CNc1cc(C)nc(N2CCOCC2)n1`: 17%. The value for `CCn1ccc(C(=O)Nc2ccc(N(C)C(C)=O)cc2)n1` was 17.1%. `Nc1cc(Cl)c2nonc2c1[N+](=O)[O-]`: the “hERG current change (%, negative = inhibition) at 1uM” value is recorded as -1.92%. The value for `O=C(NCc1ccccc1Cl)C1=CC=CN2CCS(=O)(=O)N=C12` was 7.43%.

With `CCc1ccc2oc(=O)cc(CN3CCC(C)CC3)c2c1`, the “hERG current change (%, negative = inhibition) at 1uM” value is given as 8.5%.

For `CC1(C)Cc2c(sc(NC(=O)COc3ccc(Cl)cc3)c2C(N)=O)C(C)(C)N1`, the “hERG current change (%, negative = inhibition) at 1uM” value amounted to 8.12%. The value for `CCOC(=O)N/N=C(\CCC(=O)O)c1cccs1` was 13.1%. The value for `CCc1nnc(NC(=O)CSc2nnc(CNc3ccc(OC)cc3)n2C)s1` was 9.07%; that for `CCC(=O)NC1(C(F)(F)F)C(=O)NC(C)=C1C#N` (stereo not shown) was 3.51%. As to `COC(=O)c1c(NC(=O)/C=C/c2ccc3c(c2)OCO3)sc(C)c1C`, the “hERG current change (%, negative = inhibition) at 1uM” value worked out at 1.97%. Take `COc1cc(/C=C2/C(=N)N3C=CSC3=NC2=O)ccc1OCCCOc1c(C)cccc1C`: the “hERG current change (%, negative = inhibition) at 1uM” value came to 11%. The value for `CC(=O)c1c(C)[nH]c(C(=O)OCC(=O)Nc2cc(S(=O)(=O)N3CCCCC3)ccc2C)c1C` was 10.8%; that for `CC(=O)c1c(Cl)nc2cccc3c2c1-c1ccccc1C3=O` was 11%; that for `Cc1cc(-c2ccc(C(C)C)c(S(=O)(=O)N3CC(=O)Nc4ccccc43)c2)on1` was 15.5%. `Cc1cc(N2CCN(S(=O)(=O)Cc3ccccc3)CC2)n2ncnc2n1`: the “hERG current change (%, negative = inhibition) at 1uM” value is given as -11.4%. Turning to `CCN(CC)CCCN=Cc1c(O)n(-c2c(C)cccc2C)c(=O)c2ccccc12`, the “hERG current change (%, negative = inhibition) at 1uM” value was -3.37%. Next, `CCC(C)[C@H](NC(=O)N1CC(=O)Nc2ccccc21)C(=O)N[C@H](C(=O)O)c1ccccc1` (stereo partly shown): 10.1%. In the case of `Cc1cccc(/C(N)=N/OC(=O)c2ccco2)c1`, the “hERG current change (%, negative = inhibition) at 1uM” value is -1.55%. Next, `N#CCCN(C(=O)CN1CCN(S(=O)(=O)c2ccc3c(c2)OCCO3)CC1)c1ccc(F)cc1`: 2.29%; `COc1ccc(OCC(=O)NCC(c2cccs2)N2CCOCC2)cc1` (stereo not shown): 8.74%; `CNc1cnn(-c2ccc(C)cc2)c(=O)c1Cl`: 16%. Next, `O=C(NC(NC(=S)Nc1ccccc1C(=O)O)C(Cl)(Cl)Cl)c1ccco1` (stereo not shown): 5.62%; `CCC(C)C1Nc2ccc(C(=O)NCCc3ccc(OC)c(OC)c3)cc2NC1=O` (stereo not shown): 11%.
